Measurements taken from the supplement of paper PMC7826260.
The list shows a part of the results. Each Rep nickase domain was tested in vitro on the same pool of single strands for 1 h at 37 °C with 3 µM enzyme; only the middle of the 90-letter strands is printed. Values are log2 of uncut reads against the no-enzyme pool; more negative means more cut, near 0 not cut, and no call is made. Counts are relative to all reads; uncut strands gain when others are lost, and binding without cutting may add a little.

Tests used:
Assay in all cases: uncleaved DNA left, log2 of reads against the no-enzyme library (log2 ratio); higher = less cleavage (more negative = more Rep cleavage of the k-mer); sequences stand for … in CTCGTCCG…ACCGGAGA
[1] = system: T1, Rep nickase domain of Muscovy duck circovirus
T1 sequence (Rep 1-111, printed without the tag): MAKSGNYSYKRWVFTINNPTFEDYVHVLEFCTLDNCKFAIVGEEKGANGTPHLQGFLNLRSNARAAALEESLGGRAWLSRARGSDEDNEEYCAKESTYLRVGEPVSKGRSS
Protocol: (§1)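 A pool of 90-nt single-stranded DNAs with seven random bases just before the constant AC of the nick site (name = the seven bases) was cut by 3 µM recombinant His6-SUMO-tagged Rep nickase domain (300 nM DNA, 50 mM HEPES pH 8.0, 50 mM NaCl, 1 mM MnCl2, 1 h, 37 °C, three replicates). Uncut DNA was amplified and sequenced.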

[2] = system: T2, Rep nickase domain of banana bunchy top virus
T2 sequence (Rep 1-94, printed without the tag): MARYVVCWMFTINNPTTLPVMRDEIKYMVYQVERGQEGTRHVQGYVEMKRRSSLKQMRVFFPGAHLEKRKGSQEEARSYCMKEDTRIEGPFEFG
Protocol: as §1

[3] = system: T3, Rep nickase domain of cabbage leaf curl virus
T3 sequence (Rep 1-116, printed without the tag): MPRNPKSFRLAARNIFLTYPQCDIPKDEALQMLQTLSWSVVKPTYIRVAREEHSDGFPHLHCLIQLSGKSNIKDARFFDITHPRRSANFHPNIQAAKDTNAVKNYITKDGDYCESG
Protocol: as §1

[4] = system: T4, Rep nickase domain of chickpea chlorotic dwarf virus
T4 sequence (Rep 1-124, printed without the tag): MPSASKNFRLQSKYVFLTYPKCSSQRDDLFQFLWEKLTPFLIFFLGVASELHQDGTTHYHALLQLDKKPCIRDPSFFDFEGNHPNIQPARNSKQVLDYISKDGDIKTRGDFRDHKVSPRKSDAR
Protocol: as §1

[5] = system: T5, Rep nickase domain of faba bean necrotic yellows virus
T5 sequence (Rep 1-98, printed without the tag): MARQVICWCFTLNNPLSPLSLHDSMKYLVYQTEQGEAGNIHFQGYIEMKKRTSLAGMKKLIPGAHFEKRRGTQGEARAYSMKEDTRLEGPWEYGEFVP
Protocol: as §1

[6] = system: T6, Rep nickase domain of maize striate mosaic virus
T6 sequence (Rep 1-117, printed without the tag): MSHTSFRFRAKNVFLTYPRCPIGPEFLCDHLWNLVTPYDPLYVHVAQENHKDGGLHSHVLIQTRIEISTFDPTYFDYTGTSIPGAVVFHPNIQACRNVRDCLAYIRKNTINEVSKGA
Protocol: as §1

[7] = system: T7, Rep nickase domain of porcine circovirus 2
T7 sequence (Rep 2-116, printed without the tag): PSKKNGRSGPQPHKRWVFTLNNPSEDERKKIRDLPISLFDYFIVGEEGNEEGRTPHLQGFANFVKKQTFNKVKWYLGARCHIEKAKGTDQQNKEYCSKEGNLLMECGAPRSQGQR
Protocol: as §1

[8] = system: T8, Rep nickase domain of tomato golden mosaic virus
T8 sequence (Rep 1-124, printed without the tag): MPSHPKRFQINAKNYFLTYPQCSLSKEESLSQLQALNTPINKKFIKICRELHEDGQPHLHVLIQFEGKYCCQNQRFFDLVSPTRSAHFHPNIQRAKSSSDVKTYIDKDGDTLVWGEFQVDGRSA
Protocol: as §1

[9] = system: T9, Rep nickase domain of tomato yellow leaf curl virus
T9 sequence (Rep 1-136, printed without the tag): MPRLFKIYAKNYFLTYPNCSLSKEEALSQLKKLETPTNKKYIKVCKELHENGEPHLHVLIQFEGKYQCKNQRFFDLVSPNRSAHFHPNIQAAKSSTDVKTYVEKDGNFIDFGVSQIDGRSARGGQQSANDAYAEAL
Protocol: as §1

[10] = system: T10, Rep nickase domain of wheat dwarf virus
T10 sequence (Rep 1-137, printed without the tag): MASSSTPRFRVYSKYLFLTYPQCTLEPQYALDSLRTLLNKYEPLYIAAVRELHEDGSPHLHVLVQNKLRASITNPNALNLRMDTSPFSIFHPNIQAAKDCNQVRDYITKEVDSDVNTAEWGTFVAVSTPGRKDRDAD
Protocol: as §1

Sequence	uncleaved DNA left (log2) [1]	uncleaved DNA left (log2) [2]	uncleaved DNA left (log2) [3]	uncleaved DNA left (log2) [4]	uncleaved DNA left (log2) [5]	uncleaved DNA left (log2) [6]	uncleaved DNA left (log2) [7]	uncleaved DNA left (log2) [8]	uncleaved DNA left (log2) [9]	uncleaved DNA left (log2) [10]
GTAGATC	0.243	0.187	0.455	1.02	0.153	1.72	0.263	0.248	0.162	0.288
TTAAAAG	0.041	0.00129	-0.725	-0.756	-0.0172	-1.34	0.2	-0.0426	0.0394	-0.0383
TCGACTG	0.0561	0.121	0.0174	0.765	0.129	1.82	0.0907	0.143	-0.0207	0.27
ATAGCTG	-0.0136	0.0947	0.377	1.74	0.0934	1.7	0.199	0.065	-0.0394	-0.00608
CGTTATG	0.0547	0.0924	-0.0854	0.0845	0.0775	-0.352	0.243	-0.0376	0.076	0.0516
ATCCTTT	-0.127	-0.214	-0.102	-2.23	-0.0295	-0.723	-1.49	-0.31	-0.174	-0.122
TGTTATA	0.0616	0.041	0.29	-0.21	0.093	0.951	-0.0329	0.122	0.0497	0.118
TTCCTTC	-0.0646	-0.00456	0.284	-0.205	-0.0612	-0.586	-0.0843	-0.203	-0.0315	0.0901
ATGGAGC	0.177	0.116	-0.0352	0.428	0.113	-0.0661	0.267	0.186	-0.0183	0.0672
ACCAGAT	0.0202	0.024	0.14	0.468	0.00285	-0.0467	0.0765	0.0529	-0.0305	-0.0713
GTGAGGG	0.0812	0.00864	0.203	0.625	-0.0731	0.382	0.111	0.0665	-0.0115	-0.0108
GCAATTC	-0.102	-0.0578	-0.0862	0.267	-0.0739	-0.423	0.0726	0.035	-0.038	-0.0885
TAGCCTT	0.0339	-0.238	-0.933	-2.85	-0.0584	0.0463	-3.23	-0.282	0.0399	-0.114
ATGTCAA	-0.0874	0.0361	0.0124	0.0759	0.00191	-0.435	0.0202	0.0618	0.042	-0.0827
GTCAATG	0.109	0.124	0.3	0.732	0.0818	1.43	0.124	0.0526	0.0489	-0.01
GCAGCCT	-0.018	-0.0149	-0.187	-1.31	-0.224	-0.323	-0.189	0.00764	-0.116	-0.11
GTGAGCA	0.118	0.176	0.434	1.06	0.148	1.44	-0.0775	0.129	0.242	0.229
CCACAAA	0.0102	-0.0578	-0.0256	-0.41	-0.0169	-0.577	-0.0113	-0.0662	-0.067	-0.117
TATCGCG	0.0512	0.00638	-0.671	0.773	-0.00391	-0.447	0.116	-0.0308	0.021	-0.12
CATCTGG	-0.0631	-0.054	-0.184	-0.142	-0.00619	-0.825	0.0418	-0.0221	-0.105	-0.082

Sequence	uncleaved DNA left (log2) [1]	uncleaved DNA left (log2) [2]	uncleaved DNA left (log2) [3]	uncleaved DNA left (log2) [4]	uncleaved DNA left (log2) [5]	uncleaved DNA left (log2) [6]	uncleaved DNA left (log2) [7]	uncleaved DNA left (log2) [8]	uncleaved DNA left (log2) [9]	uncleaved DNA left (log2) [10]
CTAGATC	0.0222	0.0596	0.157	-0.0719	-0.106	-0.4	0.23	0.0991	-0.0207	0.107
CTAGTAC	-0.653	-0.0278	0.0247	-0.989	-0.082	-0.595	-1.62	-0.0729	-0.142	-0.194
GAGATGG	0.0435	0.0897	0.219	0.597	0.00617	0.499	0.12	0.118	0.0257	0.0637
ACAGCAT	0.0176	0.00238	-0.4	-0.665	-0.0841	-0.759	0.0814	-0.184	0.0364	-0.142
CGGAGCA	0.0741	0.171	0.355	0.892	-0.0139	0.691	-0.608	0.113	0.144	0.151
CTCCTAG	0.165	0.0521	-0.703	-0.344	0.139	-0.843	0.122	-0.00584	0.189	0.0442
CTCCCAC	-0.0784	0.0615	0.0282	-0.549	0.0411	-0.454	-0.0336	-0.0362	0.048	-0.0315
AGTGACG	0.0369	-0.0284	-0.0726	0.552	0.0559	1.37	0.155	0.0684	-0.0635	0.0382
ACGCACT	-0.116	-0.15	-0.324	-1.72	-0.068	-0.671	-0.183	-0.0511	-0.217	-0.159
GACCAAG	0.215	0.14	-0.577	-0.438	0.0878	-0.681	0.117	0.144	0.111	0.189
GATTAAT	-2.86	-2.88	0.244	-0.0525	-0.25	1.24	-2.96	-0.0453	0.0695	0.0318
AATGGAG	0.0197	-0.199	-0.461	-0.231	0.118	-0.875	0.144	-0.0542	-0.0634	-0.0785
GAACATA	-0.0867	0.0436	0.624	0.772	-0.0263	1.91	0.115	-0.00237	0.0388	0.109
ATGGTGT	0.0308	-0.0595	0.0489	0.401	-0.171	0.565	0.00925	0.0466	-0.19	-0.143
GATGGCC	-0.115	-0.0167	0.0402	0.65	0.0141	0.67	0.0168	-0.0387	-0.0458	-0.00753
AATGAGC	0.0501	-0.0516	-0.284	-0.184	-0.0949	-0.47	0.0796	-0.0661	-0.0193	-0.0405
TGCGCAT	0.0423	0.022	-0.0254	0.101	0.0249	-0.16	0.025	-0.0932	-0.0142	0.166
AACTTTG	-0.162	0.00445	-0.502	-0.773	-0.046	-1.33	-0.161	-0.0935	-0.00206	-0.164
ATGGTCG	-0.0477	-0.068	-0.91	0.0423	-0.0991	-1.02	0.0445	-0.237	-0.00773	-0.133
CGTTCGA	0.00556	-0.0888	-0.442	-0.601	-0.0403	-0.786	0.101	0.0143	-0.0263	-0.0915

Sequence	uncleaved DNA left (log2) [1]	uncleaved DNA left (log2) [2]	uncleaved DNA left (log2) [3]	uncleaved DNA left (log2) [4]	uncleaved DNA left (log2) [5]	uncleaved DNA left (log2) [6]	uncleaved DNA left (log2) [7]	uncleaved DNA left (log2) [8]	uncleaved DNA left (log2) [9]	uncleaved DNA left (log2) [10]
CACGTTC	-0.00625	-0.0562	-0.0287	-0.864	-0.0065	-0.795	-0.0112	-0.0691	-0.15	-0.148
TGGATAA	0.0327	0.213	0.469	1.28	-0.0464	1.51	0.212	-0.0765	0.103	0.177
GATTAAC	0.1	0.0667	0.2	0.00041	0.073	0.818	0.0103	0.0844	0.157	0.193
CGGTAAG	0.0365	0.121	-0.642	-0.207	-0.0305	-0.727	0.171	0.0559	0.139	0.0668
TTTAGAC	0.0825	0.0525	0.364	0.424	0.125	0.0219	0.0751	0.00411	0.121	0.000568
CCTGGTG	0.0945	-0.0413	-0.411	-0.551	-0.00631	-0.896	0.239	0.0502	0.216	0.0171
TCGATAT	0.116	-0.0366	0.155	-0.153	0.0991	0.0425	-0.19	-0.0136	0.118	0.0338
CACTCCA	-0.143	-0.177	-0.158	-2.24	0.0123	-0.0288	-2	-0.05	-0.0812	-0.108
TCCGACA	-0.0208	0.0469	-0.16	-0.361	-0.0144	-0.118	-0.126	0.052	0.0663	0.019
TTAATTC	0.0652	-0.0569	0.391	0.101	0.0167	-0.538	0.037	-0.0879	-0.0859	-0.0175
ACGACGG	0.0427	0.00607	0.0127	0.457	-0.127	1.29	0.0654	0.0347	-0.0885	-0.054
TCCCTTC	0.16	-0.195	0.16	-0.228	-0.131	-0.533	-0.0285	-0.185	-0.131	0.0177
TACGTCC	-0.0207	-0.0793	-0.124	-0.521	-0.0356	-0.619	-0.0171	-0.0998	0.0506	0.0287
GCTGCAA	-0.0502	0.129	0.0251	0.442	0.0127	-0.0299	0.144	-0.042	0.0175	0.102
CACTAAT	-3.19	-3.02	-1.13	-2.88	-0.561	-0.832	-3.44	-0.232	0.0653	-0.222
GCCCCAG	0.0871	0.113	-0.347	-0.0885	0.123	-0.399	0.103	0.157	0.226	0.166
TCACGCT	-0.0705	-0.0655	-0.767	-2.6	0.0225	-1.26	-0.135	-0.044	-0.0481	-0.333
AACTGGC	-0.000451	0.000327	-0.168	-0.117	0.025	-0.681	0.0738	0.0572	0.0187	0.0468
